From article PMC4336329 (PLoS ONE, 2015)
The whole screen tested about 310,000 compounds, of which about 2,200 (0.71%) showed an effect of 50% or more. Effects have a minus sign here. The list shows a part of the results.

What follows are molecules tested against human ether-à-go-go-related gene (hERG) potassium channel (human, UniProt Q12809) (assay: primary screen, population patch clamp on CHO cells stably expressing hERG).
Sequence of human ether-à-go-go-related gene (hERG) potassium channel (Q12809 whole entry, looked up): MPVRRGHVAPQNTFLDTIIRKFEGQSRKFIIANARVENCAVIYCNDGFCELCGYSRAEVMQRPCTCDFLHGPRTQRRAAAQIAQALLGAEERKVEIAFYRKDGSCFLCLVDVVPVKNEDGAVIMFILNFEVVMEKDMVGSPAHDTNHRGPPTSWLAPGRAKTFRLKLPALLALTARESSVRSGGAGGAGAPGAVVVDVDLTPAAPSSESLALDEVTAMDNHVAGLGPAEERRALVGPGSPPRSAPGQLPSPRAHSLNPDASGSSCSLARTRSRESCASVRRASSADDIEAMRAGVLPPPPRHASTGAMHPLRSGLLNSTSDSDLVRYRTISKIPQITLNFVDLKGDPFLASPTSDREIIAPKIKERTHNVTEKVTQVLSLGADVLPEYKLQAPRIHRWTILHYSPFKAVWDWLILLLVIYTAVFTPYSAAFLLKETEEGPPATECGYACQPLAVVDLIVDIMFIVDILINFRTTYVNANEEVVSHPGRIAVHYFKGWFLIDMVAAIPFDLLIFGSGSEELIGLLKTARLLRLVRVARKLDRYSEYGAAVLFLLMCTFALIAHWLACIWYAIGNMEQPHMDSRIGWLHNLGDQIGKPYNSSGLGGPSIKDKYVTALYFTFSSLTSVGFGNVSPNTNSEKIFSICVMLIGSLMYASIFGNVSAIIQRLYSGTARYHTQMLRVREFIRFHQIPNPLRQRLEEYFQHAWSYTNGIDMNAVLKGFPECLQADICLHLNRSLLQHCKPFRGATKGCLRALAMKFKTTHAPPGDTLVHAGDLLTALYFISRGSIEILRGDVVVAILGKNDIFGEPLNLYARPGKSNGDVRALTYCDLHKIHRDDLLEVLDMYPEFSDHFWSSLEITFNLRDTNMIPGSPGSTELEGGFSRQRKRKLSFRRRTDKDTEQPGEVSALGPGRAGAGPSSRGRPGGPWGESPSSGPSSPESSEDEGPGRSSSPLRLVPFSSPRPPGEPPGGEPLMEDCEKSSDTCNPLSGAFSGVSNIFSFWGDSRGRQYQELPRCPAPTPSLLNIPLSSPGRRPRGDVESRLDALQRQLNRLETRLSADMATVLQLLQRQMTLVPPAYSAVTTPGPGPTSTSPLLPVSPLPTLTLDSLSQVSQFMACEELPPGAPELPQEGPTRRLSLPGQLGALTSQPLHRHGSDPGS

SMILES | hERG current change (%, negative = inhibition) at 1uM [%]
Cc1ccc(C)c(NC(=O)CSc2nc3[nH]ncc3c(=O)[nH]2)c1 | 5.1
C/C(=N\OC(=O)c1ccccc1)c1cc(-c2ccc(Cl)cc2)no1 | 3.43
Cc1cc(N2CC(C(=O)NCc3cccs3)CC2=O)ccc1C(C)C (stereo not shown) | -0.511
COc1cc2ccccc2cc1C(=O)NC1CCCCC1 | 1.8
COC(=O)CNC(=O)CCc1nnc(C2(c3ccc(Cl)cc3)CCC2)o1 | 0.917
CC(=O)[C@]1(O)Cc2c(O)c3c(c(O)c2[C@@H](O[C@H]2C[C@H](N)[C@H](O)[C@H](C)O2)C1)C(=O)c1ccccc1C3=O.Cl | 8.91
O=C(N=Nc1c(O)n(C2OC(=O)c3ccccc32)c2ccccc12)c1ccco1 (stereo not shown) | 9.45
COc1ccc(CC(=O)Nc2ccc(C(=O)NC(C)(C)C)cc2)cc1 | 4.61
CC12CC(NC(=O)N1c1cccc(C(=O)NCc3ccccc3)c1)c1ccccc1O2 (stereo not shown) | -8.94
CCOc1cc(-c2c(C)c(C)nc(N)c2C#N)ccc1O | 2.07
Cc1cccc2c(SCC(=O)NCC3CCCO3)nc(-c3ccc(F)cc3)nc12 (stereo not shown) | 1.29
CC(C)(C)NC(=O)NC(=O)Cn1ccsc1=N.Cl | 10.1
Cc1ccccc1C(=O)NC1CCN(CC(=O)Nc2nccs2)CC1 | 4.9
CCC1CCCCN1C(=O)COc1ccc(F)cc1 (stereo not shown) | 3.89
COC(=O)C1=C(CS(=O)(=O)c2ccccc2)NC(=O)NC1c1ccc(O)cc1 (stereo not shown) | 13.9
Cc1ccc2nc(/C(C#N)=C\c3ccc(Oc4ccc(C(F)(F)F)cc4[N+](=O)[O-])cc3)[nH]c2c1 | 20.8
COc1cccc(C2CC(c3cccs3)=NN2C(=S)Nc2ccccc2)c1OC (stereo not shown) | 1.02
CN(C)S(=O)(=O)c1cccc(NC(=O)Cn2cc(C(F)(F)F)cc(Cl)c2=O)c1 | 8.51
COC(=O)CNC(=O)c1ccccc1 | 17.5
CN(CC(=O)Nc1ccc(Cl)c(S(=O)(=O)N2CCOCC2)c1)C(=O)c1ccc(C#N)cc1 | 11
O=C(O)C1=NN(c2c(F)c(F)cc(F)c2F)C(=O)CC1 | 8.16
CC1CCN(C(=O)/C(=C\c2ccccc2F)NC(=O)c2ccccc2)CC1 | -18.4

SMILES | hERG current change (%, negative = inhibition) at 1uM [%]
COc1cc(-c2nc3c[n+](CC(=O)c4ccccc4)ccc3n2C)cc(OC)c1OC.[Br-] | 4.9
CC(C)N(Cc1nnc(-c2ccccc2Br)o1)C(=O)c1cc(Cl)nc2ccccc12 | 12
Cn1nc(C(=O)NC2CCCCC2)c2c1-c1ccccc1S(=O)(=O)C2 | 6.54
COc1cc(C(=O)N=c2sc3c(C)ccc(OC)c3n2C)cc(OC)c1OC | 11.8
Cc1ccc(-c2nnn(CC(=O)N(c3ccccc3F)C(CC(C)C)C(=O)NCC3CCCO3)n2)cc1 (stereo not shown) | -3.04
NC(=O)C1CCN(c2nc(-c3ccc(Br)cc3)cs2)CC1 | 14.8
O=Cc1ccc(-n2cccn2)cc1 | 6.94
CN(C)S(=O)(=O)c1cc(NC(=O)COC(=O)C2CSC3(C)CCC(=O)N23)ccc1Cl (stereo not shown) | 10.1
Cc1noc(C)c1COc1ccc2ccc(=O)oc2c1 | 7.57
O=C(CSc1nnc(CNC(=O)c2c(F)cccc2F)o1)NCc1ccccc1Cl | 14.8
COc1cccc(C(=O)Nc2cccc(NC(=O)c3ccccc3Cl)c2)c1 | -21.3
O=C(O)C1C2CCC(O2)C1C(=O)Nc1ccc(F)cc1 (stereo not shown) | 8.52
Cc1csc(NC(=O)c2ccc(-c3ccc(Cl)cc3Cl)o2)n1 | 5.09
CC(=O)c1cccc(NC(=O)C(C)OC(=O)CCN=C2NS(=O)(=O)c3ccccc32)c1 (stereo not shown) | -2.67
Cc1ccc(NC(=O)COC(=O)c2ccc3c(c2)OCO3)c(C)c1 | 11.1
CCOc1ccccc1N(CC(=O)NCc1ccncc1)S(=O)(=O)c1ccccc1 | 11.5
CCCn1cc(CN2CCC(n3nccc3NC(=O)CCOc3ccccc3)CC2)c(C)n1 | 11.1
Cc1cc(C)c(S(=O)(=O)Nc2ncn[nH]2)c(C)c1 | -0.561
CCC(Sc1nc(C)cc(=O)[nH]1)C(=O)Nc1nc(-c2ccccc2)cs1 (stereo not shown) | 10.7
CCC(=O)Nc1ccc(C(=O)Nc2c[nH]c(=O)[nH]c2=O)cc1 | 18.8
COC(=O)c1sccc1NC(=O)c1sccc1C | 7.85
